Measurements published in the supplement of paper PMC11060735.
Values joined by “and” are separate entries in the source; they are usually repeats but may differ in a detail not shown here. Identical values can stand only once. Counter-ions that a name gives are not always drawn. Among all 1,800 compounds or so, about 50 (3%) showed activity. Some of the results follow.
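Note: fibroblasts sorted 14 days after bleomycin, GFP+ and GFP− mixed 1:1 in 384-well plates (GFP− as in-well control), imaged after Hoechst and NucView530 staining, reference wells lacked compound.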

What follows are molecules tested on mouse p16Ink4a+/- lung fibroblasts (INKBRITE, bleomycin-injured) (assay: percentage of GFP+ (p16Ink4a+) fibroblasts among all cells in well; higher = less depletion of p16Ink4a+ cells, active = 20 or less). Settings: 1 µM; 3 days.
In the case of `CC(=O)O[C@@]12CO[C@@H]1C[C@H](O)[C@@]1(C)C(=O)[C@H](O)C3=C(C)[C@@H](O)C[C@@](O)([C@@H](OC(=O)c4ccccc4)[C@H]21)C3(C)C` [10-Deacetylbaccatin-III], the “percentage of GFP+” value is reported as inactive: 44.6%.
In the case of `C/C(=C\c1csc(C)n1)[C@@H]1C[C@@H]2O[C@]2(C)CCC[C@H](C)[C@H](O)[C@@H](C)C(=O)C(C)(C)[C@@H](O)CC(=O)O1` [Epothilone B, Patupilone], the “percentage of GFP+” value is reported as inactive: 44.2%.
For `O=c1cccc2n1C[C@@H]1CNC[C@H]2C1` [Cytisine], the “percentage of GFP+” value was inactive: 46.3%.
For `CC(=O)Nc1ccc(OC[C@](C)(O)C(=O)Nc2ccc([N+](=O)[O-])c(C(F)(F)F)c2)cc1` [Andarine], the “percentage of GFP+” value was inactive: 44.7%.
With `CC(=O)O[C@H]1C[C@@H]2CC[C@@H]3[C@H](CC[C@@]4(C)[C@H]3C[C@H]([N+]3(C)CCCCC3)[C@@H]4OC(C)=O)[C@@]2(C)C[C@@H]1[N+]1(C)CCCCC1` [Pancuronium] the “percentage of GFP+” value was inactive: 37%.
For `CCCCCCCCCCCCCCCC[n+]1ccccc1` [Cetylpyridinium Bromide], the “percentage of GFP+” value was inactive: 45.2%.
With `c1ccc2c(c1)Nc1ccccc1S2` [Phenothiazine] the “percentage of GFP+” value was inactive: 46.4%.
With `C[C@H]1CCC/C=C/[C@@H]2C[C@H](O)C[C@H]2[C@H](O)/C=C/C(=O)O1` [Brefeldin A] the “percentage of GFP+” value was inactive: 23.3%.
With `CC[C@H]1/C=C\C=C/C[C@@H](C)[C@H](O)[C@@](C)(O)C(=O)[C@@H](C)[C@H](O)[C@@H](C)C(=O)[C@@H](C)[C@H](O)[C@@H](C)/C=C/C(=O)O[C@@H]2C(C)[C@H](CC1)O[C@]1(CC[C@H](C)[C@H](C[C@@H](C)O)O1)[C@H]2C` (stereo partly drawn) [Oligomycin A] the “percentage of GFP+” value was inactive: 36.1%.
`C[C@]12CCC(=O)C(O)=C1CC[C@@H]1[C@@H]2CC[C@]2(C)C(=O)CC[C@@H]12` [Formestane] was tested, and the “percentage of GFP+” value was inactive: 37.6%.
`CCCN1CCO[C@H]2c3cc(O)ccc3OC[C@@H]21` was tested, and the “percentage of GFP+” value was inactive: 42.6%.
`CCN1C[C@]2(OC(=O)c3ccccc3NC(C)=O)CC[C@H](OC)[C@]34C1[C@H](C[C@H]23)[C@@]1(O)C[C@H](OC)[C@H]2C[C@@H]4[C@]1(O)[C@H]2OC` [Lappaconite HBr] was tested, and the “percentage of GFP+” value was inactive: 46.6%.
With `C#C[C@]1(O)C=C[C@H]2[C@@H]3CCC4=CC(=O)CC[C@@H]4[C@H]3CC[C@@]21CC` [Gestodene] the “percentage of GFP+” value was inactive: 34.7%.
For `C[C@]12N[C@H](Cc3ccccc31)c1ccccc12` [(+)-mk-801 Hydrogen Maleate], the “percentage of GFP+” value was inactive: 43.8%.
In the case of `CC[C@@H]1[C@@H](C)O[C@@](O)([C@@H](C)[C@H](O)[C@H](C)[C@H]2OC(=O)/C=C/C=C/[C@H](C)[C@H]([C@@H](C)[C@@H](O)[C@H](C)[C@@]3(O)C[C@@H](O[C@H]4C[C@H](O)[C@H](O)[C@H](C)O4)[C@H](CC)[C@@H](C)O3)OC(=O)/C=C/C=C/[C@H]2C)C[C@H]1O[C@H]1C[C@H](O)[C@H](O)[C@H](C)O1` [Elaiophylin], the “percentage of GFP+” value is reported as active: 11.1%.
`CC[C@@H](C(N)=O)N1CCCC1=O` [Levetiracetam] was tested, and the “percentage of GFP+” value was inactive: 46.8%.
For `CCC1(C)CC(=O)NC(=O)C1` [Bemegride], the “percentage of GFP+” value was inactive: 48.1%.
In the case of `Cc1sc2c(c1C)C(c1ccc(Cl)cc1)=N[C@@H](CC(=O)OC(C)(C)C)c1nnc(C)n1-2`, the “percentage of GFP+” value is reported as inactive: 23.8%.
In the case of `CN1[C@@H]2CC[C@H]1CC(OC(=O)C1C=Nc3ccccc31)C2` (stereo partly drawn) [Tropisetron], the “percentage of GFP+” value is reported as inactive: 38.3%.
In the case of `CC(C)NCC(O)c1ccccc1Cl` (stereo not drawn) [Clorprenaline], the “percentage of GFP+” value is reported as inactive: 50.3%.
For `CCOC(=O)c1cncn1C(C)c1ccccc1` (stereo not drawn) [Etomidate], the “percentage of GFP+” value was inactive: 43.8%.
In the case of `O=C(NCC1CCOCC1)c1cnc(Nc2ccc(Cl)cc2Cl)nc1C(F)(F)F`, the “percentage of GFP+” value is reported as inactive: 44.7%.
For `CN(C)C(=O)Oc1ccc[n+](C)c1` [Pyridostigmine], the “percentage of GFP+” value was inactive: 43.8%.
In the case of `O=[N+]([O-])c1ncc[nH]1` [Azomycin], the “percentage of GFP+” value is reported as inactive: 43.5%.
In the case of `CCNC(=O)C[C@@H]1N=C(c2ccc(Cl)cc2)c2cc(OC)ccc2-n2c(C)nnc21`, the “percentage of GFP+” value is reported as inactive: 30.5%.
In the case of `c1cc2c(cc1[C@H]1OC[C@H]3[C@@H]1CO[C@@H]3c1ccc3c(c1)OCO3)OCO2` [Sesamin], the “percentage of GFP+” value is reported as inactive: 37.7%.
In the case of `CN1CCN(c2nc3ccccc3nc2Cl)CC1`, the “percentage of GFP+” value is reported as inactive: 42.1%.
In the case of `Cn1c(CCCC(=O)O)nc2cc(N(CCCl)CCCl)ccc21` [Bendamustine], the “percentage of GFP+” value is reported as inactive: 44.3%.
With `Cc1cccc(C)c1NC(=O)CN1CCCC1=O` [Nefiracetam] the “percentage of GFP+” value was inactive: 41.6%.
`CN1[C@@H]2C[C@@H](OC(=O)[C@H](CO)c3ccccc3)C[C@H]1[C@@H]1O[C@@H]12` [Scopolamine] was tested, and the “percentage of GFP+” value was inactive: 45.1%.
In the case of `CNCC(O)c1ccc(O)cc1` (stereo not drawn) [Synephrine], the “percentage of GFP+” value is reported as inactive: 43.9% and inactive: 48.2%.
For `O=[N+]([O-])/C=C/c1ccc2c(c1)OCO2`, the “percentage of GFP+” value was inactive: 35.6%.
With `CN1C(=O)CCS(=O)(=O)C1c1ccc(Cl)cc1` (stereo not drawn) [Chlomezanone, Chlormezanone] the “percentage of GFP+” value was inactive: 36.4%.
In the case of `C[C@@H]1CC[C@H]2[C@@H](C)C(=O)O[C@@H]3O[C@@]4(C)CC[C@@H]1[C@]32OO4` [Artemisinin], the “percentage of GFP+” value is reported as inactive: 39.6%.
For `O=C(O)CNC(=O)c1c(O)c2ccccc2n(Cc2ccccc2)c1=O`, the “percentage of GFP+” value was inactive: 39.6%.
In the case of `N#C[C@H](O[C@@H]1O[C@H](CO[C@@H]2O[C@H](CO)[C@@H](O)[C@H](O)[C@H]2O)[C@@H](O)[C@H](O)[C@H]1O)c1ccccc1` [Amygdalin(d)], the “percentage of GFP+” value is reported as inactive: 46.3%.
For `CO[C@H]1CCC(O[C@H]2C[C@H]([C@]3(C)CC[C@]4(C[C@H](O)[C@@H](C)[C@@H]([C@@H](C)/C=C(\C)C(=O)[C@H](C)C[C@H](C)C(=O)O)O4)O3)O[C@]3(O[C@@H]([C@H]4O[C@@](O)(CO)[C@H](C)C[C@@H]4C)C[C@@H]3C)[C@@H]2C)O[C@@H]1C` (stereo partly drawn) [Nanchangmycin], the “percentage of GFP+” value was active: 18.5%.
`Fc1cc(F)c2c(c1)[C@H]1C=CC[C@H]1C(c1cccnc1)N2` (stereo partly drawn) [Golgicide A] was tested, and the “percentage of GFP+” value was inactive: 41%.
